The test has as its target hemagglutinin (HA)-tagged Sam68, full length (UniProt Q60749). As to the kind of experiment: co-IP; 293T cells co-transfected with Flag-CRTC2 and HA-tagged WT Sam68 or truncation mutants; 48 h later Sam68 immunoprecipitated with anti-HA, CRTC2 detected with anti-Flag.

Protein sequences, listed by entry. Tags and fused reporters are not part of them.
UniProt Q60749: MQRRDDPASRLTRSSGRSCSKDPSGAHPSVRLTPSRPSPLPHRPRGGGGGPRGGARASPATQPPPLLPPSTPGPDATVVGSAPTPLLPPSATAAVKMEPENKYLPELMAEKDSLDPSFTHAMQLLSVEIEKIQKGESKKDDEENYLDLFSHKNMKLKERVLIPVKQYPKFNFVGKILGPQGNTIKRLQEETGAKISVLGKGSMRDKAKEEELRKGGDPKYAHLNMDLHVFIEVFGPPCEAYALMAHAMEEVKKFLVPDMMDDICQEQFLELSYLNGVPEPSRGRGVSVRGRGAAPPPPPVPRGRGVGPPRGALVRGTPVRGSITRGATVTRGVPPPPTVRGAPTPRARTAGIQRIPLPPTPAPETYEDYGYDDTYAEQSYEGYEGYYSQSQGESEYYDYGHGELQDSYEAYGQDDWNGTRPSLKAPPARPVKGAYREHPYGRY

These are yes or no findings as the source states them, for the method shown. Binding seen in cells or lysates may run through a third protein. Some entries that bind do so weakly or less than the wild type. Sequences can lack the tags named with a protein.

Our source for the binding values is PMC8185084.

B1: FLAG-tagged CRTC2 (protein, UniProt Q3U182 1-692)
chain: MATSGANGPGSATASASNPRKFSEKIALQKQRQAEETAAFEEVMMDIGSTRLQAQKLRLAYTRSSHYGGSLPNVNQIGCGLAEFQSPLHSPLDSSRSTRHHGLVERVQRDARRMVSPLRRYPRHIDSSPYSPAYLSPPPESGWRRMMPWGNLPAEKGQLFRLPSALNRTSSDSALHTSVMNPNPQDTYPGPTPPSVLPSRRGGGFLDGEMDAKVPAIEENVVDDKHLLKPWDAKKLSSSSSRPRSCEVPGINIFPSPDQPANVPVLPPAMNTGGSLPDLTNLHFPPPLPTPLDPEETVYPSLSGGNSTTNLTHTMTHLGISGGLGLGPSYDVPGLHSPLSHPSLQSSLSNPNLQASLSSPQPQLQGSHSHPSLPASSLAHHALPTTSLGHPSLSAPALSSSSSSSSTSSPVLSAPPYPASTPGASPRHRRVPLSPLSLPAGPADARRSQQQLPKQFSPTMSPTLSSITQGVPLDTSKLPTDQRLPPYPYSPPSLVIPTHPPTPKSLQQLPSQACLVQPSGGQPPGRQPHYGALYPPGSSGHGQQPYHRPINDFSLGNLEQFNMESPSTSLVLDPPAFSEGPGFLGSEGSMSGPQDPHVLNHQNLTHCSRHGSGPNIILTGDSSPGFSKEIAAALAGVPGFEVSASGLELGLGLEDELRMEPLGLEGLTMLSDPCALLPDPAVEDSFRSDRLQ
Consider B1, for which the binding entry is given as “binds”.
